About 3,600 (1.6%) of roughly 230,000 compounds were called active. The inconclusive results got no clear call from the source; some entries with a clear call stand among them for comparison. Calls follow the shape of the dose curve; as a rule, active = well fitted inhibition curve with a large enough effect (not every such curve was filed as active); inconclusive = small, poorly fitted or top-dose-only effect, or another doubt; inactive = no such curve, though single readings can be large or run the other way. Potencies beside an inconclusive call are fits to weak or partial responses and may not hold up.
biological target: Lysine-specific demethylase 4E (Homo sapiens) (UniProt B2RXH2); experiment: qHTS Assay for Inhibitors of Human Jumonji Domain Containing 2E (JMJD2E); conditions: JMJD2E catalytic domain, FDH-coupled NADH fluorescence (FDH is formaldehyde dehydrogenase); series mostly up to 57.1 µM
Chain of UniProt B2RXH2 (B2RXH2 whole entry, looked up, the tested form may be a part): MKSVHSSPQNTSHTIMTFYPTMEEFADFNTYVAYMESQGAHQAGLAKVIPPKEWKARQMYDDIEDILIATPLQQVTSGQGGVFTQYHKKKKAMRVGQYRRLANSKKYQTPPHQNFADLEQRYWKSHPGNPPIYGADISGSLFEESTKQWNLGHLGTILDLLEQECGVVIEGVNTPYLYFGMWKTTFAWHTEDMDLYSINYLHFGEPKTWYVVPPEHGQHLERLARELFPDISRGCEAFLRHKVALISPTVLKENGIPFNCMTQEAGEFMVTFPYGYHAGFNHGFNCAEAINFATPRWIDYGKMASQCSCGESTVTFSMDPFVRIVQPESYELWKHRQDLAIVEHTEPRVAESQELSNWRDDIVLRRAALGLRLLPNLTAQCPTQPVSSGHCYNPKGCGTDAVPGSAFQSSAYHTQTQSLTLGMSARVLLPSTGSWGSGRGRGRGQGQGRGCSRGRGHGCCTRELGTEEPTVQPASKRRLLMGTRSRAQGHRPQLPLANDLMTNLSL
Also: nearly all actives have a fitted effect of over 50% in size.
Potency is read from the fitted curve at half-maximal effect; tags tell the direction and shape of the fitted curve.

| Compound | Potency |
| --- | --- |
| O=C(Nc1cccc(F)c1)c1c(O)c2cccc3c2n(c1=O)CCC3 | inconclusive: 7.08 µM [inhibitor, single point] |
| N#CCC(=O)Nc1ncc(Cc2ccccc2Cl)s1 | inconclusive: 3.98 µM [inhibitor, full curve] |
| O=C(Nc1cccc(-c2cn3ccccc3n2)c1)c1cccc(Cl)c1 | inconclusive: 39.8 µM [inhibitor, single point] |
| Cc1sc2nc(CN3CCOCC3)nc(N3CCOCC3)c2c1C | inconclusive: 17.8 µM [inhibitor, partial curve, poor fit] |
| CCOC(=O)N1CCN(c2ccc(S(=O)(=O)N(Cc3ccccc3)Cc3ccccc3)cn2)CC1 | inconclusive: 31.6 µM [inhibitor, partial curve] |
| COc1ccc(NC(=O)c2cc3sccc3n2Cc2ccc(F)cc2)cc1OC | inconclusive: 35.5 µM [inhibitor, single point] |
| Nc1c(C(=O)NCC2CCCO2)c2nc3ccccc3nc2n1-c1ccccc1 (configuration not stated) | inconclusive: 31.6 µM [inhibitor, partial curve] |
| O=C(c1cccn2c(=O)c3cc(Cl)ccc3nc12)N1CCOCC1 | inconclusive: 25.1 µM [inhibitor, partial curve] |
| CC(=O)O[C@]1(C(C)=O)CC[C@H]2[C@@H]3C[C@H](C)C4=CC(=O)CC[C@]4(C)[C@H]3CC[C@@]21C | inactive |
| C=CCN1C(=O)NC(c2ccccc2)(C(F)(F)F)S/C1=C(\C#N)c1nnc(N2CCOCC2)n1-c1ccccc1 (configuration not stated) | inactive |
| Nc1cc(Cl)ccc1C(=O)OCC(=O)NC1CCCCC1 | inconclusive: 25.1 µM [inhibitor, partial curve] |
| Cn1c(=O)n(C)c2cc(/C=N/NC(=O)c3cc4cc(Br)ccc4o3)ccc21 | inconclusive: 31.6 µM [inhibitor, partial curve] |
| CCC(C)NC(=O)Cn1c(=O)n(CCCC(=O)NCc2ccccc2Cl)c(=O)c2ccccc21 (configuration not stated) | inconclusive: 39.8 µM [inhibitor, single point] |
| O=C(O)CS(=O)CC(=O)Nc1cccc(C(F)(F)F)c1 (configuration not stated) | inactive |
| c1ccc(-n2ncc3c2ncn2cnnc32)cc1 | inconclusive: 35.5 µM [inhibitor, single point] |
| N#Cc1c(N)n(CCOC(=O)c2ccc(Cl)cc2)c2nc3ccccc3nc12 | inconclusive: 14.1 µM [inhibitor, partial curve] |
| Cc1cc(NC(=O)c2ccc3nc(-c4ccccc4)c(-c4ccccc4)nc3c2)no1 | inconclusive: 39.8 µM [inhibitor, single point] |
| FC(F)(F)c1cccc(NC(=S)NNC(=S)NCc2ccccc2)c1 | inactive |
| Cc1cccc(-n2cc(-c3ccccc3)c3c(=O)[nH]cnc32)c1 | inactive |
| COc1cccc(NC(=O)CN2CCN(S(=O)(=O)c3ccc(C(C)C)cc3)CC2)c1 | inactive |
| O=C(Nc1ccc(-c2csc(Nc3ccc(Cl)cc3)n2)cc1)c1cc([N+](=O)[O-])cc(C(F)(F)F)c1 | inactive |
| O=C(/C=C/c1ccc2c(c1)OCO2)Nc1nncs1 | inconclusive: 28.2 µM [inhibitor, partial curve] |
| Cc1ccc(-n2nnc3c(=O)n(Cc4ccccn4)cnc32)cc1C | inactive |
| Cc1ccc2oc(C(=O)NCc3ccc4c(c3)OCO4)c(C)c2c1 | inconclusive: 35.5 µM [inhibitor, single point] |

| Compound | Potency |
| --- | --- |
| CCCC(C(=O)NC1CCCC1)N(CCCN1CCOCC1)C(=O)c1snc(C(N)=O)c1N (configuration not stated) | inconclusive: 35.5 µM [inhibitor, partial curve] |
| NC(=O)C1(NC(=O)[C@@H]2CC3(CC(c4cccc(NC(=O)c5cc([N+](=O)[O-])cc([N+](=O)[O-])c5)c4)=NO3)CN2C(=O)c2ccccc2)CC1 (some centres not stated) | inactive |
| C/C(=N/OC(=O)c1ccc(Cl)cc1Cl)c1oc(C)nc1C | inactive |
| COc1ccc2c(c1)c(C(=O)N/N=C/c1ccc(O)c(O)c1)c(C)n2C | active: 14.1 µM |
| Cc1ccc(-n2c([C@@H]3C[C@H]3c3ccccc3)n[nH]c2=S)cc1 | inactive |
| CCOCC(=O)Nc1nc2ccccc2s1 | inconclusive: 39.8 µM [inhibitor, single point] |
| Cn1c(SCc2nc3ccccc3s2)nnc1-c1cccs1 | inactive |
| COc1ccc2c(c1)SCCC2=O | inconclusive: 31.6 µM [inhibitor, partial curve] |
| CC1(C)CC2CC(C)(CN2S(=O)(=O)c2ccc(C(=O)Nc3ccc(Cl)c(S(=O)(=O)N4CCOCC4)c3)cc2)C1 (configuration not stated) | inconclusive: 39.8 µM [inhibitor, single point] |
| COc1ccc(-c2nn(-c3ccccc3)cc2C(=O)Nc2nccs2)cc1 | inconclusive: 28.2 µM [inhibitor, single point] |
| CCOC(=O)C1=C(C)Nc2nc3ccccc3n2C1c1cccs1 (configuration not stated) | inconclusive: 35.5 µM [inhibitor, single point] |
| N#CC1=C(N)NC(SCC(=O)Nc2ccccc2)=C(C#N)C12CCCC2 | inactive |
| O=S(=O)(c1ccccc1)N1CCN(c2cc(-c3ccccc3)nc3ncnn23)CC1 | inconclusive: 39.8 µM [inhibitor, single point] |
| Cc1ccc(C(=O)NNC(=O)CCCN2C(=O)/C(=C/c3ccccc3Cl)SC2=S)cc1 | inconclusive: 35.5 µM [inhibitor, single point] |
| COc1ccc(C(=O)/C=C/Nc2cccc(O)c2)cc1 | inconclusive: 39.8 µM [inhibitor, single point] |
| Cc1c(Nc2c3c(c(C#N)c4nc5ccccc5n24)CCC3)c(=O)n(-c2ccccc2)n1C | inconclusive: 25.1 µM [inhibitor, partial curve] |
| O=c1c2ccccc2sn1-c1ccc(S(=O)(=O)N2CCCC2)cc1 | inconclusive: 0.794 µM [inhibitor, full curve, poor fit] |
| CC(=O)C1=NN(c2ccccc2)C(c2ccc3c(c2)OCO3)N1c1ccccc1 (configuration not stated) | inconclusive: 28.2 µM [inhibitor, single point] |
| CCOC(=O)c1ccc(NC(=O)CSCCC(=O)O)cc1 | inactive |
| COc1ccc(-c2nnc(SCc3cccc(C)c3)n2N)cc1 | inactive |
| COc1cc(/C=C/C(=O)OC2CC3CCC2(C)C3(C)C)ccc1O (configuration not stated) | inconclusive: 35.5 µM [inhibitor, single point] |
| O=C(O)/C=C/C(=O)NNC(=O)c1ccccc1Br | inactive |
| CCCn1c(-c2ccc(F)cc2)nc2c(NC(C)CN(C)C)nc(C)nc21 (configuration not stated) | inconclusive: 31.6 µM [inhibitor, partial curve] |
| COc1ccc(CN(CC2CCC(C(=O)O)CC2)C(=S)Nc2cc(C)ccc2C)cc1 (configuration not stated) | inactive |

| Compound | Potency |
| --- | --- |
| CC1(C)CC2CC(C)(CN2/C=C2/CCCCC2=O)C1 (configuration not stated) | inconclusive: 22.4 µM [inhibitor, single point] |
| Cc1ccc(S(=O)(=O)Nc2nc3ccccc3nc2NCC2CCCO2)c(C)c1 (configuration not stated) | inconclusive: 31.6 µM [inhibitor, partial curve] |
| Cc1occc1C(=O)NN=C1C2CC3CC(C2)CC1C3 | inactive |
| COc1ccc2nc(SCC(=O)N(C)C3CCCCC3)c(C#N)cc2c1 | inconclusive: 25.1 µM [inhibitor, single point] |
| CCc1ccc(OCc2n[nH]c(=S)n2Cc2ccccc2)cc1 | inactive |
| CCSc1nc(-c2ccc(OC)cc2)cc(-c2ccc(OC)cc2)c1C#N | inconclusive: 28.2 µM [inhibitor, partial curve] |
| Cn1nnc2c[n+](CC(=O)c3ccc(Cl)cc3)cc(Br)c21 | inconclusive: 7.08 µM [inhibitor, single point] |
| CCN(CC)S(=O)(=O)c1ccc(NS(=O)(=O)c2cccc(C)c2)cc1 | inactive |
| Cc1ccc(NC(=O)c2ccc(F)cc2)nc1 | inconclusive: 31.6 µM [inhibitor, single point] |
| Cn1c(CNC(=O)c2ccc(Cl)cc2)nnc1SCC(=O)Nc1sc2c(c1C#N)CCCC2 | inactive |
| CCOc1cc2c3c(c1)C(C)CC(C)(C)N3C(=O)C2=O (configuration not stated) | inactive |
| O=c1oc2ccc(Cl)cc2cc1-c1ccccc1 | inconclusive: 31.6 µM [inhibitor, single point] |
| CCCCNC(=O)CSc1nc2ccc(N3CCOCC3)cc2c(=O)n1CCc1ccccc1 | inconclusive: 20 µM [inhibitor, partial curve] |
| O=C1c2cccc3cccc(c23)C(=O)N1CC1CCCO1 (configuration not stated) | inconclusive: 35.5 µM [inhibitor, partial curve] |
| O=C(Nc1cc(F)cc(F)c1)c1ccc(NCCc2ccccc2)c([N+](=O)[O-])c1 | inactive |
| O=C1NC2(CCCCCC2)C(=O)N1CCS(=O)(=O)Oc1ccccc1 | inconclusive: 39.8 µM [inhibitor, single point] |
| COc1cc(N=c2ssnc2Cl)c(OC)cc1Cl | active: 12.6 µM |
| COc1ccc(OCc2cc(-c3ccc(Cl)cc3)no2)cc1 | inactive |
| COc1ccc(-n2nnc3c(SCc4ccccc4)ncnc32)cc1 | inactive |
| CCCCn1c(SCC(=O)NCc2ccco2)nc2c(sc3ccccc32)c1=O | active: 7.08 µM |
| Cc1ccc2oc(=O)c3cc(C(=O)N4CCN(C)CC4)sc3c2c1 | inconclusive: 25.1 µM [inhibitor, single point] |
| COc1ccc(S(=O)(=O)Nc2ccccc2-c2nnn(CC(=O)Nc3ccccc3OC)n2)cc1 | inactive |
| CCn1c(SCC(=O)NCCc2ccccc2)nc2sc3c(c2c1=O)CCN(C)C3 | inconclusive: 35.5 µM [inhibitor, partial curve] |
| Cn1c(CCc2nc3ccccc3[nH]2)nnc1SCC#N | inconclusive: 31.6 µM [inhibitor, partial curve] |

— PubChem BioAssay AID2147 (National Center for Advancing Translational Sciences (NCATS), 2009)
